The other results are listed elsewhere or left out.

In this assay the target is T1, OsWOX13 (Oryza sativa, UniProt Q5QMM3 1-267).
T1 sequence: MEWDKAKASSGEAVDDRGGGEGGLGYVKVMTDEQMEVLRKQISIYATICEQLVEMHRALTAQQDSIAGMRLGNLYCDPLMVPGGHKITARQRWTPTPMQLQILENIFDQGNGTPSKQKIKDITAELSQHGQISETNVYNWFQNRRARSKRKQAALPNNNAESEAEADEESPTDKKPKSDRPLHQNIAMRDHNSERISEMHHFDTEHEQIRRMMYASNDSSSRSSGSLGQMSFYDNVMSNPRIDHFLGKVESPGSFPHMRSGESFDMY
The experiment in a line: protein-binding microarray (RPBM); PBS, 2% BSA, 51.3 ng/ul salmon testes DNA, 50 uM zinc acetate, 200 nM TF, 25 C, 1 h; high values mean tight binding. Particulars: protein: recombinant; tags: N-terminal polyhistidine and DsRed monomer fusion (pET32a); label: CyDye5-dUTP incorporated in the synthesized complementary strand; 3' TTTTT single-stranded linker to array surface; dsDNA, one strand shown. In short, it runs like this: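 Transcription factors, each fused N-terminally to a polyhistidine tag and DsRed, were expressed in E. coli BL21-CodonPlus and purified on Ni–NTA. A custom Agilent array was made double-stranded by primer extension with Cy5-dUTP and blocked with 2% BSA. It was incubated with 200 nM protein in PBS, 2% BSA, salmon testes DNA and 50 µM zinc acetate at 25 °C for 1 h, then washed. The binding signal is per-feature fluorescence intensity (arbitrary units) read on an Axon 4000B scanner.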
On to “GAATCTATTGAGCCTAATTAATCCATGATTAGCCTATGTGCGGAGTCACCTAGTGCAG”, for which the binding signal was 7730 fluorescence intensity (a.u.).

“CTAGACTTAAATTGGAGAGAATGCATGACAGCACACCACACGGAGTCACCTAGTGCAG”: the binding signal was 21600 fluorescence intensity (a.u.).

Turning to “ATGATTGGAGTGGGGCCATAAAATGATGAACCTGAAGTCTCGGAGTCACCTAGTGCAG”, the binding signal is 20400 fluorescence intensity (a.u.).

Turning to “CAGTTGTGATGATAATTGTGTTATTTATGTGAGGCACGAGCGGAGTCACCTAGTGCAG”, the binding signal was 9030 fluorescence intensity (a.u.).

For “AATTAATTGAACTTGCAACCTTAATTTAGATTGTATAAGTCGGAGTCACCTAGTGCAG”, the binding signal is 30100 fluorescence intensity (a.u.).

“TATGATAGGTAGGACCAGATATTAATAGTATAGTAAGCAACGGAGTCACCTAGTGCAG”: the binding signal was 6970 fluorescence intensity (a.u.).

In the case of “CTGACAATCACACACACGACAATGCACGCACGCGCACAACCGGAGTCACCTAGTGCAG”, the binding signal was 3700 fluorescence intensity (a.u.).

For “GATATTCAATCACCACATATGCCTTGTTTATTAGTATTACCGGAGTCACCTAGTGCAG”, the binding signal is 14400 fluorescence intensity (a.u.).

For “CTGTAATTTGGGATGATAATATTCTCTCCAAGAGCGCCCACGGAGTCACCTAGTGCAG”, the binding signal is 24700 fluorescence intensity (a.u.).

Consider “AACTTGCATACCAGTGGAATTCTTCAGGCTGGTCATGGAGCGGAGTCACCTAGTGCAG”, for which the binding signal was 65500 fluorescence intensity (a.u.).

Turning to “TTTTAATGAAACTAATTTTGTGTTGTAGAAATTGCTAAACCGGAGTCACCTAGTGCAG”, the binding signal is 5890 fluorescence intensity (a.u.).

In the case of “GAGTCCATCGTAAACAGCCAAGATTGGATCGCTACCAATGCGGAGTCACCTAGTGCAG”, the binding signal is 3150 fluorescence intensity (a.u.).

For the sequence “CCAAACAGATTGAACTCGACGATTGGACGAATACGGCGATCGGAGTCACCTAGTGCAG”, the binding signal is 58900 fluorescence intensity (a.u.).

In the case of “ATAGTTTATTTTATTTTAATTTGCCCTCTCTTAGAATTGACGGAGTCACCTAGTGCAG”, the binding signal is 4810 fluorescence intensity (a.u.).

For the sequence “GCCCCAAAATTGATTGAAGTTTGCGAACGGTGGAAGAAGACGGAGTCACCTAGTGCAG”, the binding signal was 33100 fluorescence intensity (a.u.).

In the case of “TATGAATTGGCTATCAGATTGGTTATAAATAAATTGGAGCCGGAGTCACCTAGTGCAG”, the binding signal is 22600 fluorescence intensity (a.u.).

For “TAATAATAATAATAATAATAATAATAATAACACATCGCACCGGAGTCACCTAGTGCAG”, the binding signal is 4120 fluorescence intensity (a.u.).

In the case of “ACCGCGGTAACCACGTGATTATCATGAAAATCACACGGTTCGGAGTCACCTAGTGCAG”, the binding signal is 11300 fluorescence intensity (a.u.).

Consider “ACTTAATTAATTATATGCTAAAGCCCAGTCAATTTGCCTTCGGAGTCACCTAGTGCAG”, for which the binding signal was 47700 fluorescence intensity (a.u.).

As to “GCTGTGTTTGAATTAATTGATGGACAAATGAAACACAAAACGGAGTCACCTAGTGCAG”, the binding signal is 30400 fluorescence intensity (a.u.).

On to “GTCAAATCATGGCGTAATTGGGCTTAAAAGATTCGTCTCGCGGAGTCACCTAGTGCAG”, for which the binding signal was 30800 fluorescence intensity (a.u.).

Turning to “GGTATTAACGTATGATTAATTGAGTTTCAATTATTACAAACGGAGTCACCTAGTGCAG”, the binding signal is 30300 fluorescence intensity (a.u.).

Take “AGATTGACAGAGTGGGTCTGTCTATAAGAATGAAGGATGTCGGAGTCACCTAGTGCAG”: the binding signal is 19800 fluorescence intensity (a.u.).

For “TATAATTACATTGTAACTGTATTGTAAATACATTTTAATTCGGAGTCACCTAGTGCAG”, the binding signal was 5830 fluorescence intensity (a.u.).

With “AATTAACCTAATTAGATGGATATATCCATTATCCCAAACACGGAGTCACCTAGTGCAG”, the binding signal was 31400 fluorescence intensity (a.u.).

On to “GCGAATTAGCAATCTCTTAACCTGGCAGCCATATCGCCCGCGGAGTCACCTAGTGCAG”, for which the binding signal is 8850 fluorescence intensity (a.u.).

With “CATAAATAAATTAGTTCCCGGCTCAGAATAAATCCAGTCTCGGAGTCACCTAGTGCAG”, the binding signal was 13700 fluorescence intensity (a.u.).

For the sequence “AAATTAAAATTGATCGAAATTGGGAACAAATTAAGCCAGACGGAGTCACCTAGTGCAG”, the binding signal was 21600 fluorescence intensity (a.u.).

On to “ATAGATTTGATACTGAAATTGCTCCTATCTACCACGGCTTCGGAGTCACCTAGTGCAG”, for which the binding signal is 22900 fluorescence intensity (a.u.).

As to “ACTTATCACCAATTATATGAACTAAACATAGCCTTAGAGACGGAGTCACCTAGTGCAG”, the binding signal is 3630 fluorescence intensity (a.u.).

On to “TAATCTGTGATGATGGATTCTCGTTAAGCATATGTTCTTTCGGAGTCACCTAGTGCAG”, for which the binding signal was 5830 fluorescence intensity (a.u.).

Turning to “CTTTGACTAGTAGAATTGTAGTATGGATACGGATCGGGAGCGGAGTCACCTAGTGCAG”, the binding signal is 3300 fluorescence intensity (a.u.).

Consider “TTTATAATTGGCTTGTTCGATGCAACTGTTTGAGCTGCATCGGAGTCACCTAGTGCAG”, for which the binding signal was 27200 fluorescence intensity (a.u.).

Turning to “AATACATTAATTATAATAATTACCGATATATGTTACGCCCCGGAGTCACCTAGTGCAG”, the binding signal was 39500 fluorescence intensity (a.u.).

With “ATTTCTAATTAGCAATGCTAAGAGACCACTATTAACAAACCGGAGTCACCTAGTGCAG”, the binding signal is 10400 fluorescence intensity (a.u.).

For “ACGGATTAACGGATTGGTAGCGGTACGAAATGGAATGTCTCGGAGTCACCTAGTGCAG”, the binding signal was 6590 fluorescence intensity (a.u.).

For the sequence “GTTAGACTGACAGGTGGGGCCAGACCAAACCCCGTGTAAACGGAGTCACCTAGTGCAG”, the binding signal was 17400 fluorescence intensity (a.u.).

Consider “TTTTATGAAATATTTATTTAATTACATAGGTGACATAGATCGGAGTCACCTAGTGCAG”, for which the binding signal was 3930 fluorescence intensity (a.u.).

As for “GGTATAGATGGACACAATTTGATGGCAATGGGGAGTTGAGCGGAGTCACCTAGTGCAG”, the binding signal was 7370 fluorescence intensity (a.u.).

As to “CTGTAAACTATAATTTACTCTGAGCATCTATACAAAAGGACGGAGTCACCTAGTGCAG”, the binding signal is 9000 fluorescence intensity (a.u.).

As to “TGTAAATTTGTGTTCAAACTTCAAACCCTTTCGAAATATCCGGAGTCACCTAGTGCAG”, the binding signal is 5640 fluorescence intensity (a.u.).

Turning to “GGTGTGGTGATTGAGTGGACTGAGGGGATGGAGGGATGAGCGGAGTCACCTAGTGCAG”, the binding signal was 30300 fluorescence intensity (a.u.).

The values are drawn from paper PMC7819943, “Rice protein-binding microarrays: a tool to detect cis-acting elements near promoter regions in rice”.
